This passage reports binding signal results from publication PMC12820563, “FoxP3 forms a head-to-head dimer in vivo and stabilizes its multimerization on adjacent microsatellites”.

The other results are listed elsewhere or left out.

The experiment deals with T1, MBP-FoxP1dN (Mus musculus, UniProt P58462 326-579).
T1 sequence: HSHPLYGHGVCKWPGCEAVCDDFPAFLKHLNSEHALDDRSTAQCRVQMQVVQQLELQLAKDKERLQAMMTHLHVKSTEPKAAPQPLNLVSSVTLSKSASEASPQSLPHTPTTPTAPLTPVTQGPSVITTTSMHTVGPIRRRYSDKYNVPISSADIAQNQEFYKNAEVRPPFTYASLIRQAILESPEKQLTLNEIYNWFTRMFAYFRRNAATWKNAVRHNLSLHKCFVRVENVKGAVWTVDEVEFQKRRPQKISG
The experiment in a line: PD-seq (MBP pull-down with sequencing); 20 mM Tris-HCl pH 7.5, 100 mM NaCl, 1.5 mM MgCl2, 0.4 uM protein, 0.1 uM dsDNA library, 30 min, room temperature, amylose pull-down; high values mean tight binding. The following applies: protein: recombinant; tags: His6-MBP; chain copies: 2; dsDNA, one strand shown. The method, boiled down: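 The N-terminus-lacking fragment of mouse FoxP3 or FoxP1 carried a His6-MBP tag and was expressed in E. coli. At 0.4 µM it was incubated with 0.1 µM Klenow-filled degenerate double-stranded DNA library for 30 min at room temperature in Tris pH 7.5 buffer with NaCl and MgCl2, and complexes were caught on amylose resin, washed three times, released with proteinase K, PCR-barcoded and Illumina-sequenced. Binding is reads-per-million enrichment of pull-down over input with replicates pooled.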
For “GATGATTGTTCTCCCAGCTGATGAATTGGGTCTATCGAGTAAACAAATTTTCCTAATCTTTCTGTTCAAGCGCCATCTAC”, the binding signal was 0.901 RPM ratio (pull-down/input).
As for “GATGATTGTTCTCCCAGCTGATGAATTATACGTTTCGAGTAAACAAATTTTCCTAATCTTTCTGTTCAAGCGCCATCTAC”, the figure is 1.06 RPM ratio (pull-down/input); as for “GATGATTGTTCTCCCAGCTGATGAATTCCTGATTTCGAGTAAACAAATTTTCCTAATCTTTCTGTTCAAGCGCCATCTAC”, 1.02 RPM ratio (pull-down/input); as for “GATGATTGTTCTCCCAGCTGATGAATTCCAATTTTCGAGTAAACAAATTTTCCTAATCTTTCTGTTCAAGCGCCATCTAC”, 0.901 RPM ratio (pull-down/input).
For “GATGATTGTTCTCCCAGCTGATGAATTTATTAACTCGAGTAAACAAATTTTCCTAATCTTTCTGTTCAAGCGCCATCTAC”, the binding signal is 1.27 RPM ratio (pull-down/input).
As for “GATGATTGTTCTCCCAGCTGATGAATTTATCCGGTCGAGTAAACAAATTTTCCTAATCTTTCTGTTCAAGCGCCATCTAC”, the figure is 0.92 RPM ratio (pull-down/input); as for “GATGATTGTTCTCCCAGCTGATGAATTTCATGCGTCGAGTAAACAAATTTTCCTAATCTTTCTGTTCAAGCGCCATCTAC”, 0.944 RPM ratio (pull-down/input); as for “GATGATTGTTCTCCCAGCTGATGAATTCTCAGTCTCGAGTAAACAAATTTTCCTAATCTTTCTGTTCAAGCGCCATCTAC”, 0.748 RPM ratio (pull-down/input).
As to “GATGATTGTTCTCCCAGCTGATGAATTCGGACTATCGAGTAAACAAATTTTCCTAATCTTTCTGTTCAAGCGCCATCTAC”, the binding signal is 0.87 RPM ratio (pull-down/input).
As for “GATGATTGTTCTCCCAGCTGATGAATTATTCGTCTCGAGTAAACAAATTTTCCTAATCTTTCTGTTCAAGCGCCATCTAC”, the figure is 0.982 RPM ratio (pull-down/input).
As for “GATGATTGTTCTCCCAGCTGATGAATTCAGGGTATCGAGTAAACAAATTTTCCTAATCTTTCTGTTCAAGCGCCATCTAC”, the figure is 0.862 RPM ratio (pull-down/input).
As for “GATGATTGTTCTCCCAGCTGATGAATTGCAAGGATCGAGTAAACAAATTTTCCTAATCTTTCTGTTCAAGCGCCATCTAC”, the figure is 0.989 RPM ratio (pull-down/input); as for “GATGATTGTTCTCCCAGCTGATGAATTCCATTTGTCGAGTAAACAAATTTTCCTAATCTTTCTGTTCAAGCGCCATCTAC”, 0.974 RPM ratio (pull-down/input).
As for “GATGATTGTTCTCCCAGCTGATGAATTGCACCGGTCGAGTAAACAAATTTTCCTAATCTTTCTGTTCAAGCGCCATCTAC”, the binding signal was 0.989 RPM ratio (pull-down/input).
As for “GATGATTGTTCTCCCAGCTGATGAATTGTATACATCGAGTAAACAAATTTTCCTAATCTTTCTGTTCAAGCGCCATCTAC”, the figure is 2.35 RPM ratio (pull-down/input); as for “GATGATTGTTCTCCCAGCTGATGAATTGTTCTGGTCGAGTAAACAAATTTTCCTAATCTTTCTGTTCAAGCGCCATCTAC”, 1.12 RPM ratio (pull-down/input).
The figure for “GATGATTGTTCTCCCAGCTGATGAATTCTGTGTGTCGAGTAAACAAATTTTCCTAATCTTTCTGTTCAAGCGCCATCTAC” is 1.18 RPM ratio (pull-down/input); for “GATGATTGTTCTCCCAGCTGATGAATTTCGGCCATCGAGTAAACAAATTTTCCTAATCTTTCTGTTCAAGCGCCATCTAC” it is 0.772 RPM ratio (pull-down/input).
For “GATGATTGTTCTCCCAGCTGATGAATTAAGTCTTTCGAGTAAACAAATTTTCCTAATCTTTCTGTTCAAGCGCCATCTAC”, the binding signal was 0.894 RPM ratio (pull-down/input).
The figure for “GATGATTGTTCTCCCAGCTGATGAATTGTAGGCCTCGAGTAAACAAATTTTCCTAATCTTTCTGTTCAAGCGCCATCTAC” is 0.839 RPM ratio (pull-down/input).
As for “GATGATTGTTCTCCCAGCTGATGAATTTGACTTGTCGAGTAAACAAATTTTCCTAATCTTTCTGTTCAAGCGCCATCTAC”, the figure is 0.82 RPM ratio (pull-down/input); as for “GATGATTGTTCTCCCAGCTGATGAATTCCTTAAATCGAGTAAACAAATTTTCCTAATCTTTCTGTTCAAGCGCCATCTAC”, 0.991 RPM ratio (pull-down/input).
With “GATGATTGTTCTCCCAGCTGATGAATTAACCGGTTCGAGTAAACAAATTTTCCTAATCTTTCTGTTCAAGCGCCATCTAC”, the binding signal is 0.868 RPM ratio (pull-down/input).
Consider “GATGATTGTTCTCCCAGCTGATGAATTGGAGGCGTCGAGTAAACAAATTTTCCTAATCTTTCTGTTCAAGCGCCATCTAC”, for which the binding signal was 0.961 RPM ratio (pull-down/input).
The figure for “GATGATTGTTCTCCCAGCTGATGAATTTTTAGCTTCGAGTAAACAAATTTTCCTAATCTTTCTGTTCAAGCGCCATCTAC” is 0.925 RPM ratio (pull-down/input); for “GATGATTGTTCTCCCAGCTGATGAATTAATCATATCGAGTAAACAAATTTTCCTAATCTTTCTGTTCAAGCGCCATCTAC” it is 1.07 RPM ratio (pull-down/input); for “GATGATTGTTCTCCCAGCTGATGAATTTATTTGATCGAGTAAACAAATTTTCCTAATCTTTCTGTTCAAGCGCCATCTAC” it is 1.2 RPM ratio (pull-down/input).
Take “GATGATTGTTCTCCCAGCTGATGAATTCTAGATCTCGAGTAAACAAATTTTCCTAATCTTTCTGTTCAAGCGCCATCTAC”: the binding signal is 0.764 RPM ratio (pull-down/input).
As for “GATGATTGTTCTCCCAGCTGATGAATTAGTACACTCGAGTAAACAAATTTTCCTAATCTTTCTGTTCAAGCGCCATCTAC”, the figure is 1.17 RPM ratio (pull-down/input); as for “GATGATTGTTCTCCCAGCTGATGAATTGCGCGAATCGAGTAAACAAATTTTCCTAATCTTTCTGTTCAAGCGCCATCTAC”, 1.14 RPM ratio (pull-down/input); as for “GATGATTGTTCTCCCAGCTGATGAATTACTCGATTCGAGTAAACAAATTTTCCTAATCTTTCTGTTCAAGCGCCATCTAC”, 0.968 RPM ratio (pull-down/input).
Turning to “GATGATTGTTCTCCCAGCTGATGAATTATACGGATCGAGTAAACAAATTTTCCTAATCTTTCTGTTCAAGCGCCATCTAC”, the binding signal was 0.95 RPM ratio (pull-down/input).
